Data published in patent US9580749B2, “Dyes and labeled molecules” (Biotium, Inc., priority 2005, dated 2017).

System: UBC fragment (SEQ ID NO: 8) from human genomic DNA
Test: qPCR titration of human genomic DNA (UBC fragment)
Details: 10^5 down to 10 copies of human DNA; AOAO-12 A495=0.1, SYBR Green I A495=0.025
Procedure: Amplifications of a UBC fragment (SEQ ID NO: 8) from human genomic DNA were performed under conditions similar to those set forth in Example 45, with either SYBR Green I (final absorption peak at 495 nm corresponds to an optical density of 0.025, or A495=0.025) or AOAO-12 (final A495=0.1), except that (1) different forward and reverse primers sets (5′-ACTGGTAAGACCATCACC-3′ (SEQ ID NO: 9) and 5′-GCAATGAAATTTGTTGAA-3′ (SEQ ID NO: 10)) were used, and (2) a series of 10-fold dilutions of human DNA served as the templates.

Question: For `CN(C)c1ccc2cc3ccc(N(C)C)cc3[n+](CCCCCC(=O)NCCOCCNC(=O)CCCCC[n+]3c4cc(N(C)C)ccc4cc4ccc(N(C)C)cc43)c2c1` [AOAO-12], which “signal strength in qPCR” value is on record?
Answer: Its value is “superior to SYBR Green I in signal strength”.
